Measurements from the RNAGym collection of RNA variant scans (doi:10.7554/elife.90254).
The source gives no read counts; variants with many changes may rest on few reads.

B1: LINE1-full (parent)
chain: UACGUAGGUGGUUUUCCCCUGAUAGUGCUAAGGGGGCCUGGAAGUUUGGACUGGGCAGAGCUCAACACAGCGUGGCAAAGUGGCUGUGGCUAGACUGCCUCUCUGGAUUCCUCGUCACUCAGCAGGGCAUCUCUGAGAGAAAUGCC

Variants of: B1
Assay: self-cleavage, relative activity (ratio to wild type); higher = more cleavage; in vitro, sequencing; the parent is a self-cleaving ribozyme
Variant U85C U112A A136G has a self-cleavage of 0.5.
For G60A G86A C131G, the self-cleavage was 0.03.
Variant A64G G70A U104C U115C G135A has a self-cleavage of 0.39.
A6G U20A A42G U112C U115G G122C A124G U143C gave a self-cleavage of 1.84.
For U12C A121G A136G, the self-cleavage was 2.1.
Variant U9C U13G U14A U143C has a self-cleavage of 0.69.
In the case of G105U A129G A142G, the self-cleavage is reported as 1.34.
Variant G35U U47A A69G A121U A141G has a self-cleavage of 0.22.
A6G U39A U45C U52C U100C gave a self-cleavage of 1.84.
Work on U100A U102C A140U yielded a self-cleavage of 1.61.
For U13C G53U U96C U102A, the self-cleavage was 0.2.
Variant U45C U46C U143C has a self-cleavage of 0.88.
U12C U115A U132A A140G gave a self-cleavage of 1.
Variant U13A A77G U112C has a self-cleavage of 1.53.
U87A U130C A136G gave a self-cleavage of 0.05.
A69G C103U A136G gave a self-cleavage of 0.42.
With U62C G97A U143C the self-cleavage was 0.01.
In the case of U13C A57U A78U, the self-cleavage is reported as 0.3.
Variant G27U U62C U85G has a self-cleavage of 0.29.
Variant U13A U47C A57G C98U has a self-cleavage of 0.25.
U39A U115C A141G showed a self-cleavage of 2.04.
In the case of U47C G125A U130C, the self-cleavage is reported as 1.74.
In the case of A59U C76U U119A A140G C145U, the self-cleavage is reported as 0.61.
U20C U62C U104A showed a self-cleavage of 0.15.
Work on A64U A138G A142G yielded a self-cleavage of 0.54.
With A6G A94G U102A the self-cleavage was 0.35.
With G35A G36A G40A U102C the self-cleavage was 1.13.
A50G U87C A140G showed a self-cleavage of 0.57.
Variant A50G A121G U143A has a self-cleavage of 1.37.
U12C U46C A69G U85C A140G gave a self-cleavage of 1.53.
U45C U100C U115A showed a self-cleavage of 1.04.
Variant U1C A121G A138U has a self-cleavage of 0.63.
U81A G82A U85C A138G A142G C146U gave a self-cleavage of 0.72.
Variant A50G U91A G105A has a self-cleavage of 0.65.
For A22G A92G U130C, the self-cleavage was 0.57.
A43G A57G A136G gave a self-cleavage of 0.
With G54A U115C U132C A136G the self-cleavage was 0.6.
In the case of U13A G33U C84U C90U C110U U112C A136G A142G, the self-cleavage is reported as 0.01.
With G34A A94G G97C A129U A138G the self-cleavage was 0.06.
For G82A U100C U104C A136G, the self-cleavage was 2.67.
For A67U A69G A129G, the self-cleavage was 0.
Variant A31G C38U A43C C51U has a self-cleavage of 0.88.
U9A U46C A94G U96C U134A showed a self-cleavage of 0.42.
For A2G A64U A78G, the self-cleavage was 0.47.
In the case of G34C A64U U73G A141G, the self-cleavage is reported as 1.02.
With A31U C71A U112C A138U the self-cleavage was 0.2.
Variant U12C U91C A136G has a self-cleavage of 0.63.
For A67G U112C U115A C116U, the self-cleavage was 0.65.
In the case of U13A U81C U87C A138G, the self-cleavage is reported as 0.13.
In the case of C19U A42G A59U U109C A138G, the self-cleavage is reported as 0.8.
A43G U109C A140G showed a self-cleavage of 0.3.
U13C G21A U73C showed a self-cleavage of 1.23.
With A6U U14C U29C C63U A64G C103U the self-cleavage was 0.
With G34A A42G A107G G144A the self-cleavage was 1.03.
For A2G U62C U85C U102C G125U A141G, the self-cleavage was 0.13.
In the case of U1A A6U U52A U132A A136G A140G, the self-cleavage is reported as 1.52.
G33C G70A U109C G127A U143C gave a self-cleavage of 0.07.
Variant U73C U100C U130C U143A has a self-cleavage of 1.02.
U91C U96C U143C showed a self-cleavage of 0.12.
Work on U14C A79G U109C C110U yielded a self-cleavage of 1.09.
In the case of A67G G82U U134C U143C, the self-cleavage is reported as 0.28.
For C17A A92G A129G, the self-cleavage was 0.
In the case of A22G A30G U85G A136G, the self-cleavage is reported as 0.78.
Variant G27A A65C U134C has a self-cleavage of 0.02.
A30G G35A A50G A67G C113U G144C gave a self-cleavage of 0.42.
In the case of U14A U73C A77U, the self-cleavage is reported as 0.54.
Variant U73A U102C U108C U115A U130A has a self-cleavage of 1.38.
With A94G A124G U130A U134C U143C the self-cleavage was 0.
U12G U46C G88A A107G showed a self-cleavage of 0.07.
G34A U52C U62A gave a self-cleavage of 0.03.
A31U U46C U119A showed a self-cleavage of 1.26.
Work on U14C C38U A64G U100C U130C yielded a self-cleavage of 0.44.
With U15C U47C G74A U115A the self-cleavage was 1.59.
For U100C A141G A142U, the self-cleavage was 1.5.
U14C U96C U143C showed a self-cleavage of 0.24.
Work on G34A U47C A77G yielded a self-cleavage of 1.88.
With U9C U108C U112C the self-cleavage was 1.1.
U12C G35A U112C showed a self-cleavage of 0.89.
Variant U12C A57G U91C A141G has a self-cleavage of 0.6.
U15C U26C G35U A59U A78U A129G showed a self-cleavage of 1.08.
U39C A43G U132C gave a self-cleavage of 1.57.
Work on U15C U73A U119C U132C U134A A142G yielded a self-cleavage of 0.42.
Variant G70U A77U C131A has a self-cleavage of 0.05.
U100C A107G U109A gave a self-cleavage of 1.88.
For U9A U26A A50G A94U A138G, the self-cleavage was 0.78.
With U26A U47A U52C U143C the self-cleavage was 1.12.
In the case of A6C U23C G122A A124G, the self-cleavage is reported as 0.
Work on A42G U52C U143A yielded a self-cleavage of 1.64.
For G35C U39A U45C A129C U132C U143A, the self-cleavage was 1.06.
With U20A U62C A64C U134C the self-cleavage was 0.06.
Variant A50C U85A U112C A141G has a self-cleavage of 0.03.
U29A A59G U109A gave a self-cleavage of 0.06.
U26A U73A A140G gave a self-cleavage of 0.54.
In the case of G7U A79G C99U, the self-cleavage is reported as 0.06.
Variant U15C A31U A138U has a self-cleavage of 0.95.
Work on U15C U23A A24G U46A C66U U109A yielded a self-cleavage of 0.15.
With A31U A67G A138U the self-cleavage was 0.07.
Work on C37G U47C G70U yielded a self-cleavage of 0.06.
In the case of U26C A78G A124G G125U, the self-cleavage is reported as 1.73.
A31G A140G U143C gave a self-cleavage of 2.16.
U20A G21A A67G U81A showed a self-cleavage of 0.46.
U46A U81A U108C gave a self-cleavage of 2.37.
G55A U96C U143C gave a self-cleavage of 0.05.
A42G U115A A136U gave a self-cleavage of 1.85.
Work on A42G A136G U143C yielded a self-cleavage of 1.89.
A92U U108C G125U gave a self-cleavage of 0.97.
Work on G7A U15A A92U yielded a self-cleavage of 0.33.
With A2G G32A A79C the self-cleavage was 1.13.
In the case of U23A C90U U96A U115A, the self-cleavage is reported as 0.13.
For U46A A64G A129G, the self-cleavage was 0.37.
Work on U23C A79G C99U yielded a self-cleavage of 0.86.
Variant A30G C51A U102C A138G has a self-cleavage of 0.98.
In the case of U9A U14C G27A A50G U96C, the self-cleavage is reported as 0.
Work on U13C G35A A69C C76U yielded a self-cleavage of 0.02.
For G74A U119C A136G, the self-cleavage was 1.07.
For U45C A67G A121G A142G, the self-cleavage was 0.88.
In the case of U45C A121U A138G, the self-cleavage is reported as 1.47.
G93U U115C A121C U130C gave a self-cleavage of 0.02.
With A107G U130A A142G the self-cleavage was 1.27.
In the case of G44U U45C U46C U62C U130A G144A, the self-cleavage is reported as 0.01.
Work on A6G U14C A64U C103U G106U yielded a self-cleavage of 0.45.
A30G U47C A64U U96A gave a self-cleavage of 0.15.
With U26A G97A U108C the self-cleavage was 0.21.
With U13C U62A A67U A69G U112A the self-cleavage was 0.13.
With G7A A79G U115C the self-cleavage was 0.44.
With A69U A124G G126A the self-cleavage was 0.04.
C38A A64G U85A A129U U132C showed a self-cleavage of 0.03.
For U9A U47C A79G, the self-cleavage was 0.86.
For A24G U26C U52C, the self-cleavage was 1.31.
Variant G7A U12C C66U has a self-cleavage of 0.12.
For A92G U119C A138U, the self-cleavage was 0.
U1C U39C A50G G54A showed a self-cleavage of 0.12.
Work on U73C A121G A140U yielded a self-cleavage of 1.53.
With U62G A79G A138G the self-cleavage was 0.38.
For A6U A64G C90G U112A, the self-cleavage was 0.27.
Work on A64U U81C A138G yielded a self-cleavage of 0.65.
For A22C C28G U112A, the self-cleavage was 1.09.
Variant U20A A50U A94G A141G G144A has a self-cleavage of 0.14.
Work on U9G U87C A141G yielded a self-cleavage of 0.35.
Variant C38G A79G A140G has a self-cleavage of 0.91.
Work on A50G C66U A94G A117G U130C yielded a self-cleavage of 0.
In the case of A79U U87C U104C C113U, the self-cleavage is reported as 0.28.
With A92G U100C A141G the self-cleavage was 0.
In the case of U26A U62A U115A, the self-cleavage is reported as 0.08.
With U73C A94G A141G the self-cleavage was 0.
With U9C U73A A107G A142G the self-cleavage was 2.72.
With A22G C68U C76U A79G U81A U100C A107G the self-cleavage was 1.7.
With U45C A64U A67U A79G the self-cleavage was 0.08.
For U81G U108C A121U, the self-cleavage was 1.46.
U102A U109A A124C A129G gave a self-cleavage of 1.84.
Variant U1A G60A A78G A129U U130C has a self-cleavage of 0.08.
In the case of U26A A57G U132G, the self-cleavage is reported as 0.
In the case of U15A A43G A107G U134C, the self-cleavage is reported as 1.41.
G32A U39C U45C A92U A138G gave a self-cleavage of 0.74.
With U1A U46C U96C the self-cleavage was 0.42.
U9C U108C C131A gave a self-cleavage of 1.08.
Variant U1C U20C U52C A78G G125A has a self-cleavage of 1.08.
Variant A6G G35A U73A U109C has a self-cleavage of 2.42.
Variant U12G U14C A78G has a self-cleavage of 0.38.
For U9C G53U A67G A141U A142G, the self-cleavage was 0.39.
In the case of A2G U29C U132C, the self-cleavage is reported as 0.44.
A43G A92C U112A C116U A140G A142G gave a self-cleavage of 0.11.
U9A A31G C131U showed a self-cleavage of 1.06.
Variant A64G A136U U143A has a self-cleavage of 0.37.
Work on U15A A43G U52C A77U G97A A117G A138G yielded a self-cleavage of 0.
For U26C A77G U96G U100A C123U, the self-cleavage was 0.
Work on A42G U85C A141G yielded a self-cleavage of 0.24.
